Measurements taken from a collection of fitness landscapes (doi:10.1016/j.celrep.2020.107928).
The full ranking holds about 81,000 sequences; the median of “one-hybrid fitness for binding parS DNA” is about -0.17, and the highest 2% start at about 0.51. The list shows a part of the results.

B1: Caulobacter ParB omega fusion; a variant is named by its letters at X, in order, B8GW30 (parent)
chain: MESVVVGEPGMSEGRRGLGRGLSALLGEVDAAPAQAPGEQLGGSREAPIEILQRNPDQPRRTFREEDLEDLSNSIREKGVLQPILVRPSPDTAGEYQIVAGERAWRAAQRAGLKTVPIMVRELDDLAVLEIGIIENVQRADLNVLEEALSYKVLMEKFERTQENIAQTIGKSXSHVANXMRLLXLPDEVQSYLVSGELTAXHARAIAAAADPVALAKQIIEGGLSVRETEALARKAPNLSAGKSKGGRPPRVKDTDTQALESDLSSVLGLDVSIDHRGSTGTLTITYATLEQLDDLCNRLTRGI

Variants of: B1
Test: one-hybrid fitness for binding parS DNA (scaled: cognate 1, non-cognate 0); higher = stronger binding
Conditions: with parS DNA site
Summary of the method: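 The reporter was HIS3, with the binding site 19 bp from the promoter, in E. coli USO used for bacterial one-hybrid selection of Caulobacter ParB libraries with four specificity codons randomised. Growth was on M9 lacking histidine, with 0.1 mM IPTG and 5 mM 3-AT, for 48 hours at 37°C. Illumina sequencing covered plasmids before and after selection; three replicate libraries were pooled and variants with under 10 reads dropped. A fitness score is the log change in variant-to-wild-type read ratio, rescaled to the cognate and non-cognate references.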

Variant | one-hybrid fitness for binding parS DNA
RNKG | 0.941
NAHV | ≤ 0.2
NTKM | ≤ 0.2
MKRA | ≤ 0.2
LTCG | ≤ 0.2
KACD | ≤ 0.2
QCAG | ≤ 0.2
QIAL | ≤ 0.2
VLWS | ≤ 0.2
PGTH | ≤ 0.2
NILL | ≤ 0.2
GLFD | ≤ 0.2
KGKS | ≤ 0.2
STKQ | ≤ 0.2
KICR | ≤ 0.2
AISL | ≤ 0.2
ELKT | ≤ 0.2
QRSQ | ≤ 0.2
MFQG | ≤ 0.2
YLLY | ≤ 0.2
NYSV | ≤ 0.2
ALMY | ≤ 0.2
SFFG | ≤ 0.2
TVDS | ≤ 0.2
FQRA | ≤ 0.2
QVRI | ≤ 0.2

Variant | one-hybrid fitness for binding parS DNA
QHAI | ≤ 0.2
YKNS | ≤ 0.2
TMIL | ≤ 0.2
PNSS | ≤ 0.2
KTTH | ≤ 0.2
AMMC | ≤ 0.2
YAPV | ≤ 0.2
THSA | ≤ 0.2
KTSS | ≤ 0.2
LVEL | ≤ 0.2
HSHD | ≤ 0.2
PAAY | ≤ 0.2
QPES | ≤ 0.2
CRMT | ≤ 0.2
AQTA | ≤ 0.2
GVNC | ≤ 0.2
CSEC | ≤ 0.2
PDTN | ≤ 0.2
TCKS | ≤ 0.2
NGRF | ≤ 0.2
SMMC | ≤ 0.2
VYCC | ≤ 0.2
RGGP | ≤ 0.2
EAQC | ≤ 0.2
ISHG | ≤ 0.2
ADMC | ≤ 0.2

Variant | one-hybrid fitness for binding parS DNA
GGWT | ≤ 0.2
MTTS | ≤ 0.2
DISP | ≤ 0.2
RILQ | ≤ 0.2
PMSA | ≤ 0.2
YYSL | ≤ 0.2
QTHW | ≤ 0.2
RRYF | ≤ 0.2
QLCE | ≤ 0.2
ETSM | ≤ 0.2
ELKR | ≤ 0.2
LEGS | ≤ 0.2
AKGA | ≤ 0.2
VVQN | ≤ 0.2
LQNY | ≤ 0.2
RKAG | 0.959
IVKF | ≤ 0.2
CPLS | ≤ 0.2
YVMT | ≤ 0.2
RGLM | ≤ 0.2
YRNC | 0.296
PPYN | ≤ 0.2
CVLT | ≤ 0.2
TCYW | ≤ 0.2
LWNT | ≤ 0.2
